The values that follow come from publication PMC12820563.

The other results are listed elsewhere or left out. The list includes weakly bound sequences.

This experiment has as its target T1, MBP-FoxP3dN (UniProt Q99JB6).
T1 sequence: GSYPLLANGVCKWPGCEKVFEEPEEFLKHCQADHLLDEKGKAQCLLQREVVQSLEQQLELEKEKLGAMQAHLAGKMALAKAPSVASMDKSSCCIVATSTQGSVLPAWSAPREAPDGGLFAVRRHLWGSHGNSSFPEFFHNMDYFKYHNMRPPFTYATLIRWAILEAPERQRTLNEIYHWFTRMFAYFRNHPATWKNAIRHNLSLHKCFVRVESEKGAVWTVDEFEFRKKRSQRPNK
As to the kind of experiment: PD-seq (MBP pull-down with sequencing). The conditions noted are these: 20 mM Tris-HCl pH 7.5, 100 mM NaCl, 1.5 mM MgCl2, 0.4 uM protein, 0.1 uM dsDNA library, 30 min, room temperature, amylose pull-down; high values mean tight binding; double strand, one strand shown.
For “GATGATTGTTCTCCCAGCTGATGAATTGCTTTGTTCGAGTAAACAAATTTTCCTAATCTTTCTGTTCAAGCGCCATCTAC”, the binding signal (RPM ratio (pull-down/input)) was determined as 1.58.

Regarding “GATGATTGTTCTCCCAGCTGATGAATTTTCACGTTCGAGTAAACAAATTTTCCTAATCTTTCTGTTCAAGCGCCATCTAC”, the binding signal (RPM ratio (pull-down/input)) worked out at 0.284.

As to “GATGATTGTTCTCCCAGCTGATGAATTATTATCGTCGAGTAAACAAATTTTCCTAATCTTTCTGTTCAAGCGCCATCTAC”, the binding signal (RPM ratio (pull-down/input)) was found to be 0.943.

For the sequence “GATGATTGTTCTCCCAGCTGATGAATTCCTACCCTCGAGTAAACAAATTTTCCTAATCTTTCTGTTCAAGCGCCATCTAC”, the binding signal (RPM ratio (pull-down/input)) came to 0.239.

Consider “GATGATTGTTCTCCCAGCTGATGAATTCCCAAGCTCGAGTAAACAAATTTTCCTAATCTTTCTGTTCAAGCGCCATCTAC”, for which the binding signal (RPM ratio (pull-down/input)) was 0.226.

As for “GATGATTGTTCTCCCAGCTGATGAATTACTGCAATCGAGTAAACAAATTTTCCTAATCTTTCTGTTCAAGCGCCATCTAC”, the binding signal (RPM ratio (pull-down/input)) turned out to be 2.62.

On to “GATGATTGTTCTCCCAGCTGATGAATTTTCCCTATCGAGTAAACAAATTTTCCTAATCTTTCTGTTCAAGCGCCATCTAC”, for which the binding signal (RPM ratio (pull-down/input)) stood at 0.258.

For the sequence “GATGATTGTTCTCCCAGCTGATGAATTGCGAGACTCGAGTAAACAAATTTTCCTAATCTTTCTGTTCAAGCGCCATCTAC”, the binding signal (RPM ratio (pull-down/input)) was determined as 0.8.

For “GATGATTGTTCTCCCAGCTGATGAATTGGCTGATTCGAGTAAACAAATTTTCCTAATCTTTCTGTTCAAGCGCCATCTAC”, the binding signal (RPM ratio (pull-down/input)) was determined as 0.802.

Turning to “GATGATTGTTCTCCCAGCTGATGAATTTTCAGCTTCGAGTAAACAAATTTTCCTAATCTTTCTGTTCAAGCGCCATCTAC”, the binding signal (RPM ratio (pull-down/input)) came to 0.287.

For the sequence “GATGATTGTTCTCCCAGCTGATGAATTACAATATTCGAGTAAACAAATTTTCCTAATCTTTCTGTTCAAGCGCCATCTAC”, the binding signal (RPM ratio (pull-down/input)) worked out at 0.962.

For the sequence “GATGATTGTTCTCCCAGCTGATGAATTTTCTGATTCGAGTAAACAAATTTTCCTAATCTTTCTGTTCAAGCGCCATCTAC”, the binding signal (RPM ratio (pull-down/input)) amounted to 0.284.

For the sequence “GATGATTGTTCTCCCAGCTGATGAATTGCTCCCCTCGAGTAAACAAATTTTCCTAATCTTTCTGTTCAAGCGCCATCTAC”, the binding signal (RPM ratio (pull-down/input)) amounted to 0.458.

Take “GATGATTGTTCTCCCAGCTGATGAATTAAACCGCTCGAGTAAACAAATTTTCCTAATCTTTCTGTTCAAGCGCCATCTAC”: the binding signal (RPM ratio (pull-down/input)) came out at 0.279.

As to “GATGATTGTTCTCCCAGCTGATGAATTAAGTAACTCGAGTAAACAAATTTTCCTAATCTTTCTGTTCAAGCGCCATCTAC”, the binding signal (RPM ratio (pull-down/input)) came out at 1.58.

Turning to “GATGATTGTTCTCCCAGCTGATGAATTGCTCAACTCGAGTAAACAAATTTTCCTAATCTTTCTGTTCAAGCGCCATCTAC”, the binding signal (RPM ratio (pull-down/input)) came to 0.454.

As for “GATGATTGTTCTCCCAGCTGATGAATTCGGGCCATCGAGTAAACAAATTTTCCTAATCTTTCTGTTCAAGCGCCATCTAC”, the binding signal (RPM ratio (pull-down/input)) worked out at 1.05.

For the sequence “GATGATTGTTCTCCCAGCTGATGAATTTAACGTATCGAGTAAACAAATTTTCCTAATCTTTCTGTTCAAGCGCCATCTAC”, the binding signal (RPM ratio (pull-down/input)) amounted to 0.792.
